Test results reported in the supplement of paper PMC12645437, “Orthogonal IMiD-Degron Pairs Induce Selective Protein Degradation in Cells” (ACS Chemical Biology, 2025).
This is one part of the list.

Target: no compound (DMSO)
Assay: log2 fold change of degron read counts, EGFP-low vs EGFP+ sorted cells; higher = lower degron-EGFP level without compound (poor expression or instability)
Details: compound: DMSO control; 18 h
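Also: jurkat cells carrying a lentiviral library of mutant zinc finger degrons fused to EGFP plus mCherry, mCherry+ cells FACS sorted, degron abundance counted by next-generation sequencing.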

Sequence | log2 fold change of degron read counts
FLCDVCGAKFTQKGNLLRHIKL | -1.68
FSCNQCGHIFTQKGNLLRHIKL | 0.442
FVCPICGHVFTQKGNLLRHIKL | -0.284
FTCNQCGAVFTQKGNLLRHIKL | -1.12
FECEICGAMFTQKGNLLRHIKL | -1.62
FSCDVCGAYFTQKGNLLRHIKL | -1.1
FQCPICGRQFTQKGNLLRHIKL | 0.227
FNCNVCGATFTQKGNLLRHIKL | -1.4
LDCEICGFVCTQKGNLLRHIKL | 1.02
LDCPICGFRCTQKGNLLRHIKL | 0.479
FYCPICGRNFTQKGNLLRHIKL | -1.61
FSCSVCGHDFTQKGNLLRHIKL | -0.75
FYCEICGHHFTQKGNLLRHIKL | -0.526
LACNQCGFMCTQKGNLLRHIKL | 0.0618
